# Results as given in PMC3501490, “An Investigation of Hierachical Protein Recruitment to the Inhibitory Platelet Receptor, G6B-b” (PLoS ONE, 2012).
# By UniProt entry, the sequences of proteins in these tests, tags left out.
# UniProt P06241: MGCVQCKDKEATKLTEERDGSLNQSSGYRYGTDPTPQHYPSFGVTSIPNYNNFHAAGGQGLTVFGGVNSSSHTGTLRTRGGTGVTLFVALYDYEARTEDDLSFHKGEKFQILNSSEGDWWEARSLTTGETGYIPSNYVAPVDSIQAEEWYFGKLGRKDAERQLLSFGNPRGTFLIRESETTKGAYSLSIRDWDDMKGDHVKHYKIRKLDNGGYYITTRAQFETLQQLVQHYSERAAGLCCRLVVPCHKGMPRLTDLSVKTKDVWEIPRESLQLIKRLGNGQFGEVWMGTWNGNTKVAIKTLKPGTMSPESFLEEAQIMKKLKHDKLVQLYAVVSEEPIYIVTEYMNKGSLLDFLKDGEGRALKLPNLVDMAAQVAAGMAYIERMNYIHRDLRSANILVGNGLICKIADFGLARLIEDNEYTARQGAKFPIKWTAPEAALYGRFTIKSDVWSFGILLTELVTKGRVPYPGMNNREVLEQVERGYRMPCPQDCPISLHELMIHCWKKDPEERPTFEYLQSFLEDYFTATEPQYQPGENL
# UniProt P41240: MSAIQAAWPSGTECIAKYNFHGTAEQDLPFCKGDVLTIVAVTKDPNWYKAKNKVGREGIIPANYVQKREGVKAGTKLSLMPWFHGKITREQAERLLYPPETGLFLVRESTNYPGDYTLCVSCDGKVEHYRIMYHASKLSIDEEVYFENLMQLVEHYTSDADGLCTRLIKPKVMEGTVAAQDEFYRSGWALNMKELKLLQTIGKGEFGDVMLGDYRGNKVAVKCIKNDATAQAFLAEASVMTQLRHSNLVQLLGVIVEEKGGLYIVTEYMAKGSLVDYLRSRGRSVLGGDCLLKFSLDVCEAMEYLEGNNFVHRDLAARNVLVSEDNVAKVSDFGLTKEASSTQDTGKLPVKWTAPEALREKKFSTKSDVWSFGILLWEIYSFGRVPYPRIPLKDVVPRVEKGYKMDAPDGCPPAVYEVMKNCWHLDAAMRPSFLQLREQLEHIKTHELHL
# These are yes or no findings as the source states them, for the method shown. Binding seen in cells or lysates may run through a third protein. Some entries that bind do so weakly or less than the wild type.
# Target: T1, G6B-b pY237 phosphopeptide (biotinylated 60-mer, amino acids 182 to 241, ITSM phosphorylated) (human) (UniProt O95866)
# T1 sequence (peptide, phosphotyrosine at 237; biotin (end not stated)): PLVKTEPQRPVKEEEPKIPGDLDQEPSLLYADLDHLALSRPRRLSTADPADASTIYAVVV
# Assay: pull-down; biotinylated G6B-b peptides on Streptactin beads incubated with pre-cleared NP-40 lysate of washed human platelets activated with 1 ug/ml CRP for 90 seconds, 4°C, 30 minutes; Western blotting; only the target purified
row,binding,Substance
1,binds,"Fyn (endogenous, human platelets) (from UniProt P06241 1-537) (enzyme)"
2,binds,"Csk (endogenous, human platelets) (from UniProt P41240 1-450) (enzyme)"
